Source: PMC4336329 (PLoS ONE, 2015)
Among all 310,000 compounds or so, about 14,000 (4.5%) showed an effect of 50% or more. Effects have a minus sign here. The list shows a part of the results.

Molecular target: human ether-à-go-go-related gene (hERG) potassium channel (human, UniProt Q12809)
Test: primary screen, population patch clamp on CHO cells stably expressing hERG
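Further: peak tail current of the secondary pulse compared with the same well before compound.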

Chain of human ether-à-go-go-related gene (hERG) potassium channel (Q12809 whole entry, looked up): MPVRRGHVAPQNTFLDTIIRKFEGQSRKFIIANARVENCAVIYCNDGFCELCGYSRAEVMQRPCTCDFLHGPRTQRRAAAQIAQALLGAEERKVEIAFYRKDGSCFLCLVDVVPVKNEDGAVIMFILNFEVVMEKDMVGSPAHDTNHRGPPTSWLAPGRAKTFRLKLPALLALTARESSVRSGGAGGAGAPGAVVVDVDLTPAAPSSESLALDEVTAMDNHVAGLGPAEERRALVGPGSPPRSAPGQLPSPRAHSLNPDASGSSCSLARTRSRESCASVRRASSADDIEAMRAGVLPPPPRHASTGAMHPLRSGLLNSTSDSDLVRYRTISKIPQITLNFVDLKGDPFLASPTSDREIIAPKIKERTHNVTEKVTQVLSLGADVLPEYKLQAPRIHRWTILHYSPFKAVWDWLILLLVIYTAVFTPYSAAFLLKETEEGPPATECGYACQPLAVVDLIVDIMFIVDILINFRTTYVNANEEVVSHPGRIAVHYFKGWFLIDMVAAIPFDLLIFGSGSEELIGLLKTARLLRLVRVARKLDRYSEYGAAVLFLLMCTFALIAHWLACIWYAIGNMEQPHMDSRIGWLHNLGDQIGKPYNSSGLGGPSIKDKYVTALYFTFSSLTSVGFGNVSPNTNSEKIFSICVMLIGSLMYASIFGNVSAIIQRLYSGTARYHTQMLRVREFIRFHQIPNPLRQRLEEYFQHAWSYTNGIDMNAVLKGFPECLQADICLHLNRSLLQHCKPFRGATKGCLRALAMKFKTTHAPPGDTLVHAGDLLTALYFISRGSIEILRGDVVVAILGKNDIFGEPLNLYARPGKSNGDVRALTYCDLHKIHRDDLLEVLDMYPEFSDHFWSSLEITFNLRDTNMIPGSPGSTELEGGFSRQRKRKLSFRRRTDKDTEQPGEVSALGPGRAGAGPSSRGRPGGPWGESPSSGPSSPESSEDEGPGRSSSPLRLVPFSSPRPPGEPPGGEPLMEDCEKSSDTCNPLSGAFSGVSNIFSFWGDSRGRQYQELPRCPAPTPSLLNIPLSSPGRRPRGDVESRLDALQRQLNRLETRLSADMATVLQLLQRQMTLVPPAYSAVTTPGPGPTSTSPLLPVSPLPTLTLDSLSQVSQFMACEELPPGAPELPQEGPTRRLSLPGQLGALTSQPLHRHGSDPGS

SMILES | hERG current change (%, negative = inhibition) at 10uM
N#CCCn1cc(C(=O)O)c(-c2cc3ccccc3o2)n1 | 24.6%
Cn1c(CSc2nc3ccccc3s2)n[nH]c1=S | 11.3%
COc1ccc(C2(CNC(=O)c3ccccc3)CCCC2)cc1OC | -7.95%
Cc1cccc(C)c1NC(=S)Nc1c(C)n(C)n(-c2ccccc2)c1=O | -1.97%
O=C(NC(=O)c1ccccc1F)Nc1nc(-c2cccs2)cc(C(F)(F)F)n1 | 4.49%
CCC(C)c1ccc(OCC(=O)Nc2ccc3c(c2)C(=O)NC3=O)cc1 (stereo not shown) | 13.8%
COc1cc(/C=N/NC(=O)c2cccnc2)ccc1OC(=O)c1ccc([N+](=O)[O-])cc1 | 10.9%
CN(C)S(=O)(=O)c1ccc(C(=O)OCCCN=C2NS(=O)(=O)c3ccccc32)cc1 | -7.5%
O=C(c1cccc(S(=O)(=O)Nc2cccc(C(F)(F)F)c2)c1)N1CCOCC1 | -7.37%
CCOC(=O)c1cc(-c2ccccc2)sc1NC(=O)COC(=O)c1ccc(Cl)c(S(N)(=O)=O)c1 | 7.47%
CCCCN(CCCNC(=O)CN1C(=O)COc2ccccc21)c1ccccc1 | -26%
Cc1cc(C)cc(NS(=O)(=O)c2csc(C(N)=O)c2)c1 | 17.3%
Nc1cccc(-c2nc3ccccc3[nH]2)c1 | 4.39%
COc1ccccc1N1CCN(S(=O)(=O)CCNC(=O)c2ccccc2Br)CC1 | 3.17%
C/C(=N\NC(=O)c1cc2ccccc2cc1O)c1ccc(C)o1 | 9.05%
O=C(c1cccs1)N1CCCc2ccccc21 | -14.4%
CCn1c(=O)n(CC)c2cc(S(=O)(=O)Nc3ccccc3C)c(C)cc21 | -11%
COc1ccc(-c2nc(CCl)cs2)cc1.Cl | 21.8%
COc1ccccc1/C=C/C(=O)Nc1ccc(S(=O)(=O)Nc2cc(C)nc(C)n2)cc1 | 8.24%
CCOc1ccc2nc(N3CCC(C(=O)N4CCN(c5ncccn5)CC4)CC3)sc2c1 | -13.4%
O=C(CSCc1ccc(Cl)c(Cl)c1)Nc1c[nH]c(=O)[nH]c1=O | 24.7%
COc1ccc(C2C(C(N)=O)=C(C)Nc3nc(-c4cccc(Cl)c4)nn32)cc1OC (stereo not shown) | 8.81%
COc1ccc(C2=CC(c3cccc(OC)c3)n3nnnc3N2)cc1 (stereo not shown) | 8.61%
CC(Sc1ccccc1)C(=O)Nc1ccc(N2CCOCC2)cc1 (stereo not shown) | -7.09%
CCC1(CC)NC(=O)N(CC(=O)NC(=O)NCc2ccccc2)C1=O | 11.7%
COc1ccc2[nH]c(=O)c(CN(Cc3ccco3)C(c3nnnn3Cc3ccccc3)C(C)C)cc2c1 (stereo not shown) | -19.8%
N/C(=N\c1nc(C(F)(F)F)cc(=O)[nH]1)Nc1ccc(Cl)cc1 | -2.92%
Cc1ccccc1Cn1c(=O)sc2ccccc2c1=O | 9.73%

SMILES | hERG current change (%, negative = inhibition) at 10uM
CCN(CC)C(=O)CS(=O)(=O)CC(=O)Nc1cc(OCCOC)c(Cl)cc1Cl | -12.8%
O=C(NCc1ccco1)c1cc(-c2ccccc2)nc2ccccc12 | -16.5%
O=C(CCC(=O)c1ccc(F)cc1)Nc1cccnc1 | 1.31%
O=C(CCSc1nnc2scc(-c3ccccc3)n12)Nc1nc(-c2ccccc2)ns1 | 6.01%
O=C(NNS(=O)(=O)c1ccccc1)c1ccc([N+](=O)[O-])cc1 | -8.91%
O=C(N/N=C/c1cccc2nccnc12)c1ccccc1O | -0.891%
Cc1ccc(C(=O)CSc2nnc3c4ccccc4nc(C(C)(C)C)n23)cc1 | 12.8%
Cc1c(NC2(C#N)CCCCC2)c(=O)n(-c2ccccc2)n1C | 16.2%
CCOc1cc2[nH]c(=O)n(Cc3ccc(C(=O)NCCCN4CCCC4=O)cc3)c(=O)c2cc1OCC | 16.2%
CCc1nnc(NC(=O)C2CCN(C(=O)NC3CCCCC3)CC2)s1 | -4.36%
CSc1ccc(/C=C/C(=O)OCC(=O)NC2CCS(=O)(=O)C2)cc1 (stereo not shown) | 12%
CC(C)(C)C(=O)Nc1ccccc1C(=O)Nc1ccncc1 | 15.2%
COc1ccc(C(O)c2nccn2Cc2ccccc2)cc1 (stereo not shown) | 9.83%
CCc1ccc(C2C(C#N)=C(N)Oc3n[nH]c(CC(=O)OC)c32)cc1 (stereo not shown) | -2.08%
CCn1c(SCC(=O)c2ccc3ccccc3c2)nnc1-c1ccco1 | -0.477%
CC(=O)c1ccc(N(CC(=O)NCC2CCCO2)C(=O)CCC(=O)Nc2cc(C)on2)cc1 (stereo not shown) | 22.4%
CCN(C(=O)COC(=O)Cc1coc2cc(C)ccc12)c1c(N)n(Cc2ccccc2)c(=O)[nH]c1=O | -7.54%
CC1(C)C(=O)OC(/C=C/c2cccc([N+](=O)[O-])c2)C(C)(C)C1=O (stereo not shown) | 20.8%
O=C(O)c1ccc(/C=C2\CCCc3c2nc2ccccc2c3C(=O)O)cc1 | 17.4%
COc1ccc(CSCC(=O)Nc2ccc(S(=O)(=O)N3CCCCCC3)cc2)cc1 | -6.24%
O=C(CN1CCOCC1)NCC(=O)Nc1ccc(Br)cc1C(=O)c1ccccc1 | -37.1%
Oc1ccc(CN2CCN(c3ncccn3)CC2)cc1 | 12.4%
COc1ccc(CNC(=O)C2CC(C)=CCC2C(=O)O)cc1 (stereo not shown) | 18.3%
CCCCC(CC)CNC(=O)c1cccs1 (stereo not shown) | 8.33%
CCOCCOC(=O)C1=C(C)N(C)C(=O)NC1c1ccccc1Cl (stereo not shown) | 9.54%
O=C(CN(Cc1ccco1)C(=O)CNS(=O)(=O)c1ccc(F)cc1)NCc1ccccc1 | -28.4%
Oc1c(C=C2N=c3ccccc3=N2)sc(=S)n1C1CCCC1 | 2.45%
